The whole screen tested about 52,000 compounds, of which about 1,700 (3.3%) were called active. Cut-off read from the data, not from the text of the source: active = survival mostly below about 52% (no sharp cut-off); inactive = mostly above about 56%. Some of the results follow.

This assay concerns Wild type. The assay can be described thus: growth inhibition of S. aureus wild type versus tarO mutant, primary screen, teichoic acid synthesis inhibitors, RN4220, OD600 (AID 463173). The note with it: S. aureus RN4220 wild type/DeltatarO growth, OD600, 18 h, active compounds read low, screened at 18.75 µg/mL (by protocol).
With `CCCN1CCN(CCCNC(=O)Cn2c(-c3cccs3)cc3cc(Cl)ccc32)CC1`, the survival is inactive: 71%.
As for `Cc1cc(Cl)ccc1NC(=O)c1cc2ccccn2n1`, the figure is inactive: 68%; as for `NC(=O)c1c(NC(=O)CN(C(=O)c2cccs2)C2CCCC2)sc2c1CCCC2`, inactive: 106%; as for `Cc1ccc(CNC(=O)CSC2=Nc3ccccc3C3=NC(C)C(=O)N23)cc1` (stereo not given), inactive: 70%.
For `Cc1ccc2occ(CC(=O)N3CCN(c4cccc(Cl)c4)CC3)c2c1`, the survival was inactive: 102%.
As for `CC(C)CCNC(=O)c1cn(C)c2ccc(S(=O)(=O)N3CCOCC3)cc2c1=O`, the figure is inactive: 83%; as for `Cc1ccc(OCc2nnc(-c3ccccc3)o2)cc1`, inactive: 77%.
As for `COc1ccccc1N1CCN(S(=O)(=O)c2ccc(-c3cnc(C4CC4)o3)cc2)CC1`, the survival was inactive: 132%.
In the case of `Cc1cc(C)c(NC(=O)Cn2c(=O)n(Cc3ccccc3)c(=O)c3c(C)c(C(=O)N(C)C)sc32)c(C)c1` it was inactive: 121%; in that of `COc1cc2c(=O)c(S(=O)(=O)c3ccccc3)cn(CC(=O)Nc3ccccc3C)c2cc1OC`, inactive: 84%.
`COc1cc(OC)c(NC(=O)c2c3c(nc4ccccc24)C(=O)N(C2CCCCC2)C3)cc1Cl`: the survival was inactive: 47%.
As for `CCN1C(=O)C2C(c3cccs3)NC(C)(C(=O)OC)C2C1=O` (stereo not given), the figure is inactive: 110%.
As to `CCc1cccc(NC(=O)CCS(=O)(=O)c2cc3c4c(c2)CCN4C(=O)CC3)c1`, the survival was inactive: 81%.
In the case of `Cc1cccc(C(=O)Nc2cccc(OCc3cc(=O)n4ccccc4n3)c2)c1` it was inactive: 72%; in that of `COc1cc2c(cc1OC)C(COc1ccccc1OC)N(C(=O)c1ccccc1OC)CC2` (stereo not given), inactive: 73%.
In the case of `O=S(=O)(c1ccccc1)N1CCN(S(=O)(=O)N2CCCCC2)CC1` it was inactive: 101%.
In the case of `COc1c(Cl)cc(Cl)cc1CNCCSc1nnnn1C` it was inactive: 85%; in that of `O=C(Nc1nc2n(n1)C(c1ccc(F)cc1)C=C(c1ccccc1)N2)c1cccc([N+](=O)[O-])c1` (stereo not given), inactive: 117%.
Consider `CCC(C)NC(=O)CSc1nc2cc3c(cc2c(=O)n1CCCCCC(=O)NCc1ccc(OC)cc1)OCO3` (stereo not given), for which the survival was inactive: 60%.
In the case of `CCOc1ccccc1NC(=O)CN1CCN(S(=O)(=O)c2ccc(Br)cc2)CC1` it was inactive: 90%; in that of `CCC1CCCCN1Cc1cn2c(-c3ccc(Br)cc3)nnc2s1` (stereo not given), inactive: 69%; in that of `CCS(=O)(=O)N1CCc2cc(C(=O)Nc3ccc(OC)cc3OC)ccc21`, inactive: 88%.
As for `CC(=O)c1cccc(NC(=O)c2nc(-c3ccccc3)n(-c3cccc(C)c3)n2)c1`, the figure is inactive: 70%; as for `O=C1c2ccccc2-c2onc3ccc(Oc4c(F)c(F)c(F)c(F)c4F)c1c23`, inactive: 107%; as for `COc1ccccc1N1CCN(C(=O)Cn2c(=O)n3nc(-c4cccc(C)c4)nc3c3ccccc32)CC1`, inactive: 66%.
In the case of `COc1ccc(CCNC(=O)c2c(C)nn(-c3ccc(F)cc3)c2-n2cccc2)c(OC)c1OC` it was inactive: 60%.
Turning to `Cc1ccc(Nc2sc(C(=O)c3ccccc3)c(N)c2S(=O)(=O)c2ccccc2)c(C)c1`, the survival is inactive: 99%.
In the case of `Cc1ccc(S(=O)(=O)NCc2ccc(/C=N/NC(=O)c3ccco3)o2)cc1` it was inactive: 98%; in that of `COc1ccc(-n2ncc(C(=O)Nc3ccc4c(c3)OCCO4)c2C2CCN(C(=O)OC(C)(C)C)CC2)cc1`, inactive: 129%; in that of `CCCCC1(O)CC(C)N(C)CC1C` (stereo not given), inactive: 106%.
For `CCOc1ccc(CNC(=O)C2CCCN(S(=O)(=O)N(CC)c3ccc(OCC)cc3)C2)cc1` (stereo not given), the survival was inactive: 117%.
Regarding `CCCSc1ncc(Cl)c(C(=O)Nc2c(C(=O)c3ccc(F)cc3)oc3ccccc23)n1`, the survival is inactive: 85%.
As for `Cc1ccc(S(=O)(=O)N2CCC(C(=O)Nc3ccc(Oc4ccccc4)cc3)CC2)cc1`, the figure is inactive: 77%.
`O=C(NCCc1ccccc1)c1ccc2c(c1)CCN2S(=O)(=O)c1ccccc1`: the survival is inactive: 84%.
In the case of `CCN(C(=O)Cn1nc(Cc2ccncc2)c2ccccc2c1=O)c1cccc(C(F)(F)F)c1` it was inactive: 72%; in that of `CC(C)Cn1c(=O)c2ccccc2n2c(CCC(=O)Nc3ccc(F)c(F)c3)nnc12`, inactive: 84%; in that of `CCOC(=O)c1c(NC(=O)C(C)Oc2ccc(Cl)c(C)c2)sc2c1CCCC2` (stereo not given), inactive: 50%.
As for `O=C(Cn1cc(S(=O)(=O)Cc2ccccc2F)c2ccccc21)NCc1ccccc1Cl`, the survival is inactive: 60%.
In the case of `Cc1cc(C)cc(NC(=O)CN2C(=O)CCc3cc(S(=O)(=O)N4CCCCC4)ccc32)c1` it was inactive: 77%.
In the case of `Cc1nn2c(=O)cc(COC(=O)c3ccc(NC(=O)c4cccs4)cc3)nc2s1` it was inactive: 140%; in that of `CC(C)CSc1ccccc1NC(=O)c1sc2nc(-c3ccncc3)ccc2c1N`, inactive: 83%; in that of `O=C(O)c1cc2nc3c(c(C(F)(F)F)n2n1)CCC3`, inactive: 117%.
In the case of `N#C/C(=C/c1ccc(-c2cccc(C(F)(F)F)c2)o1)C(=O)OC1CCCCC1` it was inactive: 114%.
Turning to `COc1ccc(NC(=O)CCN2CCN(CCO)CC2)cc1`, the survival was inactive: 74%.
As for `CCN(c1cc(C)cc(C)c1)S(=O)(=O)c1nnc(NC(=O)c2ccco2)s1`, the figure is inactive: 51%.
In the case of `COc1ccc2[nH]cc(CCNC(=O)c3cnn(-c4ccccc4Cl)c3C3CCN(C(=O)OC(C)(C)C)CC3)c2c1` it was inactive: 75%.
In the case of `Cc1cccc(N2CCN(C(=O)c3ccc(NC(=O)c4nsc5ccccc45)cc3)CC2)c1C` it was inactive: 60%; in that of `Cc1ccc(NC(=O)Cn2nnc(-c3nc(-c4ccc(Cl)cc4)no3)c2N)cc1C`, inactive: 77%; in that of `Cc1nc2c(C(=O)NCCc3ccccc3)c[nH]n2c(=O)c1Cc1ccc(F)cc1Cl`, active: -15%.
Consider `CCOc1ccc(C(=O)Nc2ccc(-c3nc4ccccc4s3)c(C)c2)cc1OCC`, for which the survival was inactive: 80%.
In the case of `CCOc1ccccc1C(=O)Nc1cc2c(cc1N1CCOCC1)n(C)c(=O)n2C` it was inactive: 81%.
As for `Cc1ccc(CCNC(=O)c2ccc3c(c2)c(C)c(C)n3Cc2ccccc2)cc1`, the figure is inactive: 125%.
Consider `COC(=O)c1sc2nc3ccccc3cc2c1N`, for which the survival is inactive: 114%.
With `CCc1nc2c(cnn2-c2ccc(Cl)cc2)c(=O)n1-c1ccc(OC)c(Cl)c1`, the survival is inactive: 78%.
On to `Cc1ccc(OCC(=O)Nc2cc(-c3cccc(C)c3)nn2-c2ccccc2)cc1`, for which the survival is inactive: 72%.

For the origin of these results see PubChem BioAssay AID463173 (ICCB-Longwood Screening Facility, Harvard Medical School, 2010).
